Sequences and labels used below:
B1: OR4K15 (parent)
chain: GUUAACGGUCAUAGGCCAUGGAAACUAGGAGCACCAUUUCGCUGCCAGUGAAGAAAUGAACAAAGAAAAUCUGGGCCAGGCAGGCAUCAAAAGAAAUAGUCUUGCGCUCAACCAGAAAGUCUGUAAUCAUUUUAAGGGUA

Consider 167 variants from the RNAGym collection of RNA variant scans (doi:10.7554/elife.90254).

Read counts are not given, so values of variants with three or more changes are uncertain.

The variants in this data set derive from B1. As to the kind of experiment: self-cleavage, relative activity (ratio to wild type); higher = more cleavage; in vitro, sequencing; the parent is a self-cleaving ribozyme.
A33G A69G A126G: the self-cleavage turned out to be 1.17.
To A36C A78G U108G U122C belongs 0.01; to A36G U37C G119A A140G, 1.82.
In the case of A36G U37G U87A A91G U100A U124C it was 0.15; in that of C35A A51G C88A G119A, 2.46.
Consider U37C A55G A59G G137A, for which the self-cleavage was determined as 0.77.
As for A33U A91G A125U U132C, the self-cleavage was found to be 1.99.
To A33G A59G U127A belongs 1.5; to U37C A52G A111G, 0.04.
To U37A G50A A54G A64G belongs 1.29.
To A36G U43A A47G A56G belongs 1.85.
A36G A59U A91G U108C U127C: the self-cleavage is 0.01.
To A33G A89G A90G U127A belongs 0.55; to A36G A51G A62C A95G, 1.07; to A36U U37C A63G U70C, 0.65.
To A33G U122C A135G belongs 0.54.
To A33U A118G A135U belongs 1.23; to A36U A52G A68U G83A U87C U127C U131C, 0.4; to A33U U37C A60G, 0.73.
On to U37C A51U A78U A111G, for which the self-cleavage is 0.09.
On to A33G A67U U130C, for which the self-cleavage came out at 0.32.
To A33G A64G A94G belongs 1.02; to U37A A52G A68G A135G, 2.81.
U37A U43A A94G A98G A114G U127C: the self-cleavage was 0.2.
With A33U U38C A47G U57C U87A A94G A118G, the self-cleavage was 0.27.
In the case of A36U A56G U57G A60G A140G it was 1.45; in that of A36G A117G U122A, 2.36.
In the case of U37C A51U A60G it was 1.68; in that of A36U U57C A59G U130C, 0.95; in that of A33G A125G U127C, 0.03.
To A36G A55G U103C A114U A135G belongs 0.05.
On to A33U U70A A90G, for which the self-cleavage stood at 0.99.
In the case of A33U U49C A59G A62U A67G A89G A126G it was 0.48; in that of U37C A52G U139C, 1.85; in that of C35U A59U U108A, 0.02.
In the case of A36U U37C U120C G137A it was 1.74.
In the case of A36C A96G U133C it was 2.18; in that of A33G U43C U72A, 0.11; in that of A33G C77U G84A A114G, 0.54.
As to A33G U43C A94C U131C, the self-cleavage came to 0.31.
For the variant A36U A60U A64G, the self-cleavage is 0.98.
To A33G U49C A117G belongs 0.94.
To A33G G83A A96G belongs 1.43; to A33U A94G U120C U127C, 0.56; to U37C A55G A129C, 0.85.
To U37C A52G A67G A95G belongs 2.45; to A36U A64G A67G, 1.37; to A33U A66G A82U, 0.49.
In the case of A33G U39C G75A A82G A96G, the self-cleavage was determined as 0.04.
In the case of A33U U37C A56G U130C, the self-cleavage was determined as 0.98.
To A33U A55G U57A A68G belongs 1.07; to A33G A126G A140G, 0.83.
In the case of A36U U49A G138U it was 0.27.
To A36U A52G A95G U103C U108C U122C U131C belongs 0; to A36U A59G G115A U122C, 0.11.
Consider A36U A89G A90G U103A, for which the self-cleavage is 0.43.
In the case of U37C A51G A54G A126G, the self-cleavage was 0.88.
In the case of A33U A60G U103C it was 0.24; in that of A33G C45A A51U A86G U108A G136U, 0.04; in that of C35U G84A A90G, 1.46.
To A36U U37C A82C A94G belongs 0.1; to A33G U57A U97C, 0.66; to A36G U39C A56C U72A, 0.2.
In the case of A36G A59G U131A it was 0.86; in that of A36U A59G A63G A111G G138A, 0.07; in that of A36G A69G U108C A117G, 0.
Consider A33G A82G A94G, for which the self-cleavage was found to be 0.4.
With A33U A52G U122A, the self-cleavage is 1.95.
In the case of U37C A52G A62U A78G A135U it was 0.12.
In the case of A36G A78G A95C it was 0.1; in that of A36C A111G A116G, 0.01; in that of C35U A56G G137U, 1.09.
In the case of A33G U49C A96G it was 1.37; in that of U37C A51G A67U A118G, 0.55; in that of A33U A96U U130C, 2.05.
Regarding A33U U38C A54U A62G U103A A129G, the self-cleavage was found to be 0.56.
In the case of A36G A52G U122C it was 1.
In the case of A33G A60G U139G it was 1.26; in that of U37C A55G A62G C76U A117G U122C U139A, 0.09; in that of C34U A55G A59G, 0.46.
As to A33G U72C U108C, the self-cleavage turned out to be 0.02.
To A36G U43C A51U A56G belongs 1.79; to A33G U57C A67G A94G, 0.83.
On to A33U U49C A62G A64G U120A, for which the self-cleavage amounted to 1.17.
Turning to A33G U103C U122C, the self-cleavage was determined as 0.26.
In the case of A33G U37C U43C A129C it was 0.34.
In the case of A36U A68G U72C U108C it was 0.01.
In the case of U37C A47G A64G A96G A116U it was 0.14; in that of A36G U38C A47G A78U, 0.53.
Regarding A36C A56G A125U, the self-cleavage was 1.61.
To A36G U49C A67G belongs 1.49; to A33G A59G A96G, 1.21.
To A36G G48A U87A U124A belongs 1.15; to C35A U43C A47U A52G, 0.54.
In the case of A33G U57A U130A, the self-cleavage is 0.62.
In the case of A36U U57G U132C it was 1.67; in that of A33G U43A U127C A140G, 0.42; in that of A36G U87A A91G, 1.09.
In the case of A33U U49C U133C it was 1.89; in that of A33G U49C A82G A98G, 0; in that of A36U A66U A118G, 1.17.
Regarding A36U A56G A82G A111G, the self-cleavage was determined as 0.01.
In the case of C35G G41A A55G A59G it was 1.1; in that of A33U A94U U100C, 2.41; in that of A33U U39A A94C, 2.5.
In the case of C34U A66G A118G, the self-cleavage came out at 0.95.
As to A36G C40U U122C, the self-cleavage amounted to 0.85.
For A36U U43A A56G U57C A140G, the self-cleavage was 1.46.
For the variant A36G A51U A117G, the self-cleavage came out at 2.19.
In the case of C34G U108A A117G U127A A140G it was 0; in that of A33G A64U A67G A82U, 0.12.
To A33G G83A A117G belongs 2.38; to A33U A82U A117G U131C A134G, 0.08; to A33G U43G A68G A69G A82G, 0.24.
In the case of U37C A54G U57C A66G it was 0.1; in that of A33U A64G G75A, 0.17; in that of A36U U37C U38C U139C, 1.03.
A36U A82G U108C: the self-cleavage was 0.01.
For A36U A60U C71A A116G, the self-cleavage was 0.19.
To A33G U49C A86G belongs 0.65; to A33G A110G A114G A140U, 0.03.
To C34U A116G U122A belongs 0.73.
C35U U37C A90G: the self-cleavage came out at 1.18.
In the case of A33G A60G U108G it was 0.03.
In the case of A33U A69G U72A A78U G79U U120C it was 0.15; in that of A36G U122A U133A, 0.18.
In the case of A36U A98G A140G it was 0.42; in that of A33U G73A A110C, 0.04; in that of A36G U103A A118G, 0.73.
As for A36G U49C C77A, the self-cleavage amounted to 0.89.
To A36G A55G C107U belongs 0.03.
Consider A33G A117G G137A, for which the self-cleavage was determined as 1.38.
To A36G G75A U139C belongs 0.13; to A33U A54G A69G U127C, 0.6; to U37C A56G A60G A67G, 0.81.
In the case of A33G C34U A59G it was 2.12; in that of A33U U87C A135U, 2.63; in that of A36G A55G U57C, 1.
On to A36C A114G A129U, for which the self-cleavage is 0.09.
In the case of A33G A89G A116G it was 0.27; in that of A36C A94G U122C, 1.78.
To A33G A59U U97C A116G belongs 0.19.
In the case of A33G U39C U87C U103C it was 0.43; in that of A36U A55G A90G A96G, 0.81; in that of C35A A90G U130C, 0.49.
Regarding C35G A60G A64G A69G, the self-cleavage is 0.92.
To A33G A96G A118G belongs 0.09; to U37C A52G U102C A116G, 1.48; to C35U U49A A125G, 0.18.
To A33G U37A G41U A60G A82G U102A belongs 0.46.
Take A36C A116G A126U: the self-cleavage was 1.27.
In the case of A36G A47U A51U it was 1.46; in that of A33G U72C U103C U108C, 0.01; in that of A36U G65A U127C U130C, 0.46.
To A33G U43C A98G A117G belongs 0.27; to C34U A52G A94G A118G, 0.25; to A33G U38C U72A A96U, 0.19.
To A36G A59G A86G U124C belongs 0.42.
For U37C A54G A63G, the self-cleavage was 1.98.
To A33G G41C A68G U139A belongs 1.19; to A33G U43A A114U, 0.08.
In the case of C35A A64G A69G U87C it was 1.44.
To C35A A64G A89G U133C belongs 0.4; to C34U U49A A78U A86U U97C C128U, 0.2.
On to A36U U43C A118G, for which the self-cleavage was 1.78.
To A33G A59U A68G U72A U131C belongs 0.02; to A33G U57G A140G, 0.65.
